# Measured values reported in PubChem BioAssay AID2073 (Sanford-Burnham Center for Chemical Genomics, 2009).
# The other results are listed elsewhere or left out. These are further read-outs of the screen, such as a control signal, another cell line or another target. No call is given for them.
# Target: Voltage-dependent N-type calcium channel subunit alpha-1B (Homo sapiens) (UniProt Q00975)
# Assay: inhibitors of Mint1-CaV2.2 protein interaction, biochemical, HTRF (AID 2073)
# Conditions: measured here: average of repeat tests, at 20 µM, stronger effect = higher value
# Chain of UniProt Q00975 (Q00975 whole entry, looked up): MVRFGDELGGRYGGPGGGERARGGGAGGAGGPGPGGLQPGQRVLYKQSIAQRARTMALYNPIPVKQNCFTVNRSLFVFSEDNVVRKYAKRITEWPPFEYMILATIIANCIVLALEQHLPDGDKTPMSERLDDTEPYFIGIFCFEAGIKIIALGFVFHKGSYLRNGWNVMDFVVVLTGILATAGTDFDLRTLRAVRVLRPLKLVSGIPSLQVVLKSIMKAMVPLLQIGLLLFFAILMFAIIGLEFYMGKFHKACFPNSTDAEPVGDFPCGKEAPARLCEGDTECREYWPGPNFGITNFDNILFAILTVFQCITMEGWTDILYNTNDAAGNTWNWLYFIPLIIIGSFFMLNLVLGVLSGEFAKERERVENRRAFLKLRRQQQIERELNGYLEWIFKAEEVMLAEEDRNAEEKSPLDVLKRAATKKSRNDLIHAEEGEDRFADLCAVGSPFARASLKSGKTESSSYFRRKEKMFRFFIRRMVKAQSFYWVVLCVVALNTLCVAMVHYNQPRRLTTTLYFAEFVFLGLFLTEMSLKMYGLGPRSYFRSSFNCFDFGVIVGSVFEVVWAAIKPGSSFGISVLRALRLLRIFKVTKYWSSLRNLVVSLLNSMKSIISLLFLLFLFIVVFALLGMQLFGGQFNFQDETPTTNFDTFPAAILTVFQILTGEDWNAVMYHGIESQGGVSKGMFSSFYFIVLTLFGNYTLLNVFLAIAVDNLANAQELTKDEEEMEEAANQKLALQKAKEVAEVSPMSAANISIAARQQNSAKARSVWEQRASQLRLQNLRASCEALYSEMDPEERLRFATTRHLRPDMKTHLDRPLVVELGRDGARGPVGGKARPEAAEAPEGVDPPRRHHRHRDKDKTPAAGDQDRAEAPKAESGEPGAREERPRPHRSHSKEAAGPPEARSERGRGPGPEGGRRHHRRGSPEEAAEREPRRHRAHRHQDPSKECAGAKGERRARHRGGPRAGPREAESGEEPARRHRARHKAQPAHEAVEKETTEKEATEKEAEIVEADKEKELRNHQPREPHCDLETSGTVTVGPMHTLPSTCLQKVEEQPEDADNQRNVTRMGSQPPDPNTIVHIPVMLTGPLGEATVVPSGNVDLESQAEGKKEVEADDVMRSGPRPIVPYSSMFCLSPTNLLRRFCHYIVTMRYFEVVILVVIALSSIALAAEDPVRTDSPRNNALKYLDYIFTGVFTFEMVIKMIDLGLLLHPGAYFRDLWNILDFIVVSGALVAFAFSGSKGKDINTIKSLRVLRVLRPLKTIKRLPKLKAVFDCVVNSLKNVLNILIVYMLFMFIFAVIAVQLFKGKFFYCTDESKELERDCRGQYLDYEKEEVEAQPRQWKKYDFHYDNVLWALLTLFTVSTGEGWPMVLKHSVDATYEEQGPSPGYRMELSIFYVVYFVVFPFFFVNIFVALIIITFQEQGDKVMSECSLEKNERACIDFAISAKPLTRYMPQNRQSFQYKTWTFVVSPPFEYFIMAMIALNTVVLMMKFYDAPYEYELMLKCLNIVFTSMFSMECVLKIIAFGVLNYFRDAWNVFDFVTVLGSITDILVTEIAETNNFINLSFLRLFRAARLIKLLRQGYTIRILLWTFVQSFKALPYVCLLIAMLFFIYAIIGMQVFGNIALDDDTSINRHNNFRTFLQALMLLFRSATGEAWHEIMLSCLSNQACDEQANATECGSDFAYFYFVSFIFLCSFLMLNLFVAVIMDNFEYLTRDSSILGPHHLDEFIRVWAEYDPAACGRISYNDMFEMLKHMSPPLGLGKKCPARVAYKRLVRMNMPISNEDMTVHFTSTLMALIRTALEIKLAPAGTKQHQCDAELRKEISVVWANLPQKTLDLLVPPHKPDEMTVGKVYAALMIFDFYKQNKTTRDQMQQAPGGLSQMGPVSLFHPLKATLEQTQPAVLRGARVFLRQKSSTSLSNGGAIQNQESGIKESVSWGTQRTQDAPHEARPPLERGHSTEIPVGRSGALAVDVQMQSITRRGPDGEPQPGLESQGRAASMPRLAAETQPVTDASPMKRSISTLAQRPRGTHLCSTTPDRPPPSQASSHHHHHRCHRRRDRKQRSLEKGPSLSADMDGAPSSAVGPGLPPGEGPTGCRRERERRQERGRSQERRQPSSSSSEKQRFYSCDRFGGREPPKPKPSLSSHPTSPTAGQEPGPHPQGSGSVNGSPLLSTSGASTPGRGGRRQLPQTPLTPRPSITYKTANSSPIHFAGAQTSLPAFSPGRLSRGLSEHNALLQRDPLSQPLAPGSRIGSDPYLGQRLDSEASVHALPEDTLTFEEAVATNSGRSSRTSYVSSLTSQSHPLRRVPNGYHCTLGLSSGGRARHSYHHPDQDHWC
row,SMILES,inhibition [%]
1,CCOc1cc(/C=C(/C#N)C(=O)Nc2ccc(OC)cc2)ccc1OCc1ccc(C(=O)O)cc1,69.9
2,Cc1cc(C)c2c(=O)n(CC(=O)Nc3ccc(Br)c(C)c3)sc2n1,81.2
3,CC1=C(C(=O)O)N2C(=O)C(NC(=O)c3nn(C)c(C)c3Cl)C2SC1 (stereo not drawn),85.1
4,CC1(C)N([O-])c2cc([N+](=O)[O-])ccc2[N+]1=O,93.4
5,CC(=O)N(C1=C(Cl)C(=O)c2ccccc2C1=O)C1CCCCC1,85.7
6,Cn1sc(=O)c2cc(S(=O)(=O)NC3CC3)ccc21,60.9
7,O=C(Nc1c[nH]c(=O)[nH]c1=O)c1ccc2c(c1)C(=O)N(c1cccc([N+](=O)[O-])c1)C2=O,76.3
8,Cc1cc(C)c2c(=O)n(CC(=O)N3CCC(N4CCCCC4)CC3)sc2n1,92.8
9,O=C1c2ccccc2-c2onc3ccc(NCCCn4ccnc4)c1c23,62.7
10,COc1ccc(CC(=O)n2[nH]c(=O)ccc2=O)cc1OC,63.7
11,COC/C=C/C1=CC2=CC(=O)C(C)(OC(=O)CCC(=O)OC)C(=O)C2=CO1 (stereo not drawn),61.2
12,CC(=O)Oc1ccc(-c2ccc(C(=O)NCCc3ccc(S(N)(=O)=O)cc3)cc2)cc1,59.9
13,COc1ccccc1NS(=O)(=O)c1cc(NC(=O)c2ccncc2)ccc1N1CCCC1,41.7
14,COc1cc(NC(=O)c2ccccc2F)ccc1NC(=O)c1cc2ccccc2o1,47.9
15,CCc1ccc(N2CSC3=C(C#N)C(c4cccs4)CC(=O)N3C2)cc1 (stereo not drawn),50.3
16,CC(=O)N(C1=C(Cl)C(=O)c2ccccc2C1=O)c1ccc(C(=O)O)cc1,88.9
17,Cc1ccc(N=c2ssnc2Cl)cc1,75.8
18,Cc1c2c(=O)n(-c3nc4ccccc4s3)nc-2cc(O)n1Cc1ccccc1,48.9
19,Cc1ccn2c(-c3csc(NCc4ccco4)n3)c(C)nc2c1,46.9
20,Cc1c(C(=O)OCC2CCCO2)[nH]c2c1C(=O)CC(c1ccco1)C2 (stereo not drawn),53.7
21,NC1=CC(=O)c2cccc3cccc1c23,68.7
22,N#Cc1nc(-c2ccc(OCc3ccc(Cl)cc3)cc2)oc1N1CCC(C(N)=O)CC1,50.7
23,COc1ccc(OC)c2c1C(=O)C(Cl)=C(Cl)C2=O,80.8
24,O=[N+]([O-])c1ccc(-c2cc(-c3ccc(Cl)cc3)n[nH]2)cc1,65.3
25,CCOC(=O)c1cc(-c2ccc(N3CCOCC3)cc2)nn1-c1ccccc1C(=O)O,79.1
26,Cc1cc(=O)oc2cc(NC(=O)c3cccc(Br)c3)ccc12,31.1

row,SMILES,inhibition [%]
1,COC(=O)/C=C\C(=O)Nc1cccc([N+](=O)[O-])c1,44.9
2,COc1cc(NC(=O)c2ccc(F)cc2)ccc1NC(=O)c1cc2ccccc2o1,55.2
3,CC(=O)NS(=O)(=O)c1ccc(NC(=O)/C=C/c2ccc(C)o2)cc1,68
4,O=C1C2C(C(=O)N1/N=C/c1ccc(N3CCCCC3)o1)C1C=CC2C12CC2 (stereo not drawn),41.8
5,COc1ccc(NC(=O)c2cc3c(=O)n(C)c4ccccc4c3s2)cc1OC,53.3
6,O=C(NCCO)c1cc(-c2cc(C(=O)NCCO)c3ccccc3n2)nc2ccccc12,53.6
7,COc1cc(/C=C2\SC(=O)N(CC(=O)Nc3ccc(C)cc3)C2=O)cc(Cl)c1OCC(=O)O,71.5
8,O=C(N/N=C/c1coc2ccccc2c1=O)c1cc(O)cc(O)c1,41.2
9,Cc1ccc2oc(-c3cc(NC(=O)c4ncn[nH]4)ccc3O)nc2c1,63.3
10,Cc1c(N=Nc2c(-c3ccc([N+](=O)[O-])cc3)[nH]n(C(N)=S)c2=O)cccc1[N+](=O)[O-],50.8
11,C=Cc1ccc(C(=O)N2CCCC(CCC(=O)N3CCN(c4ccccn4)CC3)C2)cc1 (stereo not drawn),47.3
12,O=c1[nH]sc2ccccc12,70.2
13,NS(=O)(=O)c1ccc(-c2ccc(C=C3C(=O)c4ccccc4C3=O)o2)cc1,57.6
14,CN1CSC2=C(C#N)C(c3cccc(OCc4ccccc4)c3)CC(=O)N2C1 (stereo not drawn),48.3
15,N#CC1=C2SCN(c3ccc(F)cc3)CN2C(=O)CC1c1cccc(F)c1 (stereo not drawn),48.5
16,CCOC(=O)c1ccc(N=c2ssnc2Cl)cc1,66.2
17,COc1ccc(C2CC(c3ccccc3)=NN2c2ccc(Cl)c(C(=O)O)c2)cc1 (stereo not drawn),50.9
18,CCN(CC)C(=O)COC(=O)c1cc(-c2ccco2)nc2ccccc12,48.3
19,COCc1c(N)c(C)nc(Cl)c1C#N,61
20,COc1ccc2nc(NC(=O)/C=C/c3ccc4c(c3)OCO4)sc2c1,42.6
21,O=C(CN1C(=O)/C(=C2\SC(=S)N(CCS(=O)(=O)O)C2=O)c2ccccc21)Nc1cccc(Br)c1,69.4
22,CSc1nc(SCCO)c2sc3nc(-c4ccco4)c4c(c3c2n1)CC(C)(C)OC4,48.3
23,O=C(O)CCN1C(=O)/C(=C2\C(=O)N(Cc3ccccc3Cl)c3ccccc32)SC1=S,87.5
24,Cc1cc(C)c2c(=O)c(/C=C3\NC(=S)NC3=O)coc2c1,52.7
25,O=C(NCc1ccco1)c1ccc([N+](=O)[O-])o1,49.8
26,COCCn1c(SCC(=O)Nc2ccc(F)cc2)nc2c([nH]c3ccccc32)c1=O,53.3

row,SMILES,inhibition [%]
1,CCOC(=O)C1CCCN(C(=O)Cn2sc3nc(C)cc(C)c3c2=O)C1 (stereo not drawn),88.8
2,O=c1[nH]c2ccccc2c(O)c1O,96.9
3,Cc1ccc(NC(=O)CN2C(=O)N/C(=C/c3cccn3-c3ccc(C(=O)O)cc3)C2=O)cc1,73.6
4,Nc1ccc(-c2nc3c(Cl)c(N)ccc3[nH]2)cc1,66.2
5,COc1ccc(NC(=O)c2cc(-c3ccco3)nc3ccccc23)cc1S(=O)(=O)N1CCOCC1,50.5
6,Cc1ccc(-n2cccc2/C=C2\C(=N)N3N=C(c4ccco4)SC3=NC2=O)cc1,59.6
7,O=C1c2c([N+](=O)[O-])cc([N+](=O)[O-])cc2S(=O)N1Cc1ccccc1 (stereo not drawn),53.3
8,COc1cc(OC)c(C2CC(=O)N3CN(c4ccccc4)CSC3=C2C#N)cc1OC (stereo not drawn),35.2
9,CCNC(=O)COC(=O)c1cc(-c2ccco2)nc2ccccc12,56.9
10,Cc1ccc(/C=C/C(=O)NCc2ccc(S(N)(=O)=O)cc2)o1,52.1
11,COc1ccc(NC(=O)CN2C(=O)/C(=C3\SC(=S)N(CCC(=O)O)C3=O)c3ccccc32)cc1,68.2
12,CCOC(=O)c1ccc(N2C(=O)C=CC2=O)cc1,68.8
13,Cc1cc(C)c2c(=O)n(CC(=O)NCCCN3CCN(c4ccccc4F)CC3)sc2n1,90.8
14,COc1ccc(CC(=O)Nc2ccc(-c3nnc(-c4ccccc4)o3)cc2)cc1,58.7
15,COc1ccc(NC(=O)c2cc3c(COC(C)=O)cnc(C)c3oc2=Nc2cccc(C(=O)O)c2)c(OC)c1,88.2
16,C(=C\c1ccco1)/C1=NN(c2ccccc2)C(c2ccco2)C1 (stereo not drawn),50.2
17,COc1ccccc1OCCOc1ccc(/C=C2/C(=N)N3OC(C)=CC3=NC2=O)cc1OC,44.1
18,O=C(O)c1c2c(nc3ccccc13)/C(=C/c1ccc(O)cc1)CC2,56.1
19,O=C(Nc1nc2cc3c(cc2s1)OCCO3)c1ccc(N2C(=O)CCC2=O)cc1,65.9
20,CCCCCCc1cc2cc(-c3nnc(-c4ccccc4)o3)c(=O)oc2cc1O,63.3
21,COc1ccc(OC)c(C2CC(=O)N3CN(c4ccccc4)CSC3=C2C#N)c1 (stereo not drawn),43.1
22,Cc1cc(C)nc(NC(=S)Nc2cccc(Cl)c2Cl)c1,76.7
23,COc1ccc(Cl)cc1NC(=O)c1nnn(CC(=O)Nc2ccc(OC)c(OC)c2)c1N,52.9
24,Cc1ccc(-c2nc3c(c(=O)[nH]c(=O)n3Cc3ccccc3)n2C)o1,58.4
25,CCOc1ccc(NC(=O)Cn2sc3nc(C)cc(C)c3c2=O)cc1,85.1
26,O=C1C=CC(=O)N1CCNc1ncc(C(F)(F)F)cc1Cl,59.6

row,SMILES,inhibition [%]
1,O=C(O)c1ccc(-n2cccc2/C=C2/NC(=O)N(c3cccc(Cl)c3)C2=O)cc1,53.4
2,Nc1ncnc2oc(-c3ccco3)c(-c3ccco3)c12,48
3,CCN1C(=O)c2cccc3cccc1c23,47.5
4,O=C(NCc1ccco1)c1ccc(Cl)nc1,57.5
5,Cc1c(N2C(=O)c3ccc4c5c(ccc(c35)C2=O)CC4)c(=O)n(-c2ccccc2)n1C,41.2
6,Cc1ccc(C2CC(=O)N3CN(c4ccc(Br)cc4)CSC3=C2C#N)o1 (stereo not drawn),47.8
7,O=c1[nH]c(/C=C/c2ccccc2Cl)nc2ccccc12,45.5
8,CCc1nc2sc3c(O)cc(=O)[nH]c3c2cc1C,35.8
9,COc1ccc2[nH]c(=O)c(CN(C3CCCCC3)C(c3nnnn3Cc3ccco3)C(C)C)cc2c1 (stereo not drawn),48.8
10,CNc1nc(-c2ccccc2)[n+](-c2ccc(C)cc2)s1,96.1
11,O=C1Nc2ccccc2C(=O)C1(Cl)Cc1ccccc1 (stereo not drawn),76.7
12,O=C(N/N=C/c1ccc([N+](=O)[O-])cc1)c1cc(-c2ccc3c(c2)OCO3)n[nH]1,46.8
13,COc1cc(/C=C2\SC(=O)N(c3ccc(Cl)cc3)C2=O)cc([N+](=O)[O-])c1O,85.5
14,Cc1nc2ccccn2c1-c1csc(Nc2cccc(O)c2)n1,51.3
15,O=C1C=C(c2ccc(Cl)cc2)C(=O)N1Nc1ccccc1,66.6
16,CNC(=S)/N=C(\Nc1ccc(C)cc1)c1ccccc1,85.3
17,COc1ccc(/C=C2\SC(=S)N(CCC(=O)Nc3ccc(C(=O)O)cc3)C2=O)cc1OC,86.8
18,CCOC(=O)N1CCN(C(=O)CCN2C(=O)/C(=C\c3cccc(OC)c3)SC2=S)CC1,62.5
19,CCOC(=O)c1sc2nc3c(SCCC(=O)O)cc(C(=O)c4cc(OC)ccc4O)cn3c(=O)c2c1C,87.4
20,Cc1cccc(NC(=S)NC2CCCCC2)n1,69.5
21,CCN(CC)CCNC(=O)c1cc(-c2ccco2)nc2ccccc12,51.4
22,COc1ccc(N2CSC3=C(C#N)C(c4cc(OC)c(OC)cc4OC)CC(=O)N3C2)c(OC)c1 (stereo not drawn),47.9
23,CCOC(=O)c1ccc(N=Nc2c(C)c(C#N)c(O)[nH]c2=O)cc1,56.7
24,Cc1cc(C(=O)N/N=C/c2cc(N=Nc3ccccc3)ccc2O)n[nH]1,56.6
25,O=C(COC(=O)c1c2c(nc3ccccc13)/C(=C/c1ccco1)CC2)NC1CCCC1,68.9
